Reference: a collection of fitness landscapes (doi:10.1016/j.celrep.2020.107928)
In all, about 81,000 sequences were measured (“one-hybrid fitness for binding NBS DNA”: median about -0.1, highest 2% from about 0.36 on). This is one part of the list.

B1: Caulobacter ParB omega fusion; a variant is named by its letters at X, in order, B8GW30 (parent)
chain: MESVVVGEPGMSEGRRGLGRGLSALLGEVDAAPAQAPGEQLGGSREAPIEILQRNPDQPRRTFREEDLEDLSNSIREKGVLQPILVRPSPDTAGEYQIVAGERAWRAAQRAGLKTVPIMVRELDDLAVLEIGIIENVQRADLNVLEEALSYKVLMEKFERTQENIAQTIGKSXSHVANXMRLLXLPDEVQSYLVSGELTAXHARAIAAAADPVALAKQIIEGGLSVRETEALARKAPNLSAGKSKGGRPPRVKDTDTQALESDLSSVLGLDVSIDHRGSTGTLTITYATLEQLDDLCNRLTRGI

Variants of: B1
Assay: one-hybrid fitness for binding NBS DNA (the Noc-binding site; scaled: cognate 1, non-cognate 0); higher = stronger binding
Details: with NBS DNA site
Procedure, shortened: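 Selection: bacterial one-hybrid in E. coli USO, HIS3 reporter with the site 19 bp from the promoter, 48 hours at 37°C on M9-minus-histidine plus 0.1 mM IPTG and 5 mM 3-AT. Libraries were Caulobacter ParB with four randomised specificity codons, sequenced on Illumina before and after selection. Fitness is the rescaled log change in variant-to-wild-type read ratio, anchored to the cognate and non-cognate sites.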

one-hybrid fitness for binding NBS DNA, 0.526:
QSAR

one-hybrid fitness for binding NBS DNA, 0.356:
QSAS

one-hybrid fitness for binding NBS DNA, 0.238:
RAFS

one-hybrid fitness for binding NBS DNA, ≤ 0.2:
ASHM
PLGL
TDSP
NMMG
TNQI
VSHC
YKDY
DRCA
QSMF
RIFD
SCYC
CSMF
KAHL
RWLA
VGCD
ELYN
DGHS
QQAN
DFMS
CIQR
FKRH
LCSV
GMLY
IGMG
DAVE
TPGG
DRIL
ETAC
PYDT
GSAV
PDTV
QVFN
KLCY
QYTP
SHMA
LRGT
KDIE
PKAI
YSSN
TQKM
MGQR
CNAL
AAVL
IAHR
TPAN
QTSL
RHGK
QMYC
WYTV
ACTA
SSMK
PWEG
ERFN
HYAF
SDTA
TQVL
RVPY
KAHS
YHIG
WTGV
NTFG
ALYA
STDT
LYFV
HYKV
WLRP
TCHW
AVVT
QVPA
QKIV
SWLE
CMDS
CMHR
LPLC
ETGT
VFMR
VWLR
ANIT
SKHE
YQTL
WYDS
VNVL
HDRK
LTSK
WIAV
PSSH
ANSM
TETP
LQGR
GPFG
ERYA
CCQT
TYIN
DYTT
PWAE
